Reference: US20230083670A1 (IMMUNEONCO BIOPHARMACEUTICALS SHANGHAI, published 2023)

Biological target: T1, CD47 on Jurkat cells (UniProt Q08722)
T1 construct: whole, on cells; also called CD47-expressing Raji cells
Assay: flow cytometry competition; blocks FITC-SIRPα-Fc (80 nM) on PD-L1- CD47+ Raji cells
Procedure: The mixtures were added to a 96-well plate containing PD-L1⁻ or PD-L1⁺ CD47-expressing Raji cells, and the plate was incubated at 4° C. for 45 minutes.

B1: IMM2520 (bispecific antibody, human IgG1, kappa)
heavy: not shown
light: DIQMTQSPSSLSASVGDRVTITCRASQDIINYLNWYQQKPGKAPKLLIYYTSRLHSGVPSRFSGSGSGTDFTFTISSLQPEDIATYYCQQGDTLPWTFGQGTKVEIKRTVAAPSVFIFPPSDEQLKSGTASVVCLLNNFYPREAKVQWKVDNALQSGNSQESVTEQDSKDSTYSLSSTLTLSKADYEKHKVYACEVTHQGLSSPVTKSFNRGEC
notes: SIRPαD1 mutant linked through the linker to the N-terminus of each heavy chain of IMM2515; also called recombinant fusion protein IMM2520; PD-L1×CD47 bispecific
B1 gave an IC50 of 128 nM.
